# According to the supplement of paper PMC8728848:
# The list shows a part of the results.
# B1: DrGRIFIN (Danio rerio), Q6DGJ1 (protein)
# chain: MTLRFEASCPDGLCPGWSVILKGETPPEASKFEINFLCDRDDRVAFHFNPRFTESDIICNSYMANRWGQEERCNHFPLGVEEPFQIEIYSDNDHFHVYIDKAKVMQYKHRVEDLKTITKLQVVNDVKISSLEITKKLFY
# Experiments:
# Assay in all cases: glycan array binding signal (z-score within array); higher = stronger binding
# Details in all cases: glycan notation: IUPAC condensed, linker removed
# [1] = target: Neu5Ac(a2-6)Gal(b1-4)GlcNAc(b1-2)Man(a1-3)[Neu5Ac(a2-3)Gal(b1-4)GlcNAc(b1-2)Man(a1-6)]Man(b1-4)GlcNAc(b1-4)GlcNAc
# Procedure, shortened: (§1)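 Arrays were curated from the Consortium for Functional Glycomics database, 3228 in total, and kept only where the protein sequence was available. Binding is expressed as a within-array Z-score. This score was averaged across arrays of the same protein sequence at different concentrations or buffers and across linkers, and negative values can be read as non-binding.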
# [2] = target: Neu5Ac(a2-6)Gal(b1-4)GlcNAc(b1-2)Man(a1-3)[Neu5Ac(a2-6)Gal(b1-4)GlcNAc(b1-2)Man(a1-6)]Man(b1-4)GlcNAc(b1-4)GlcNAc
# Procedure, shortened: as §1
# [3] = target: Neu5Ac(a2-6)Gal(b1-4)GlcNAc(b1-2)Man(a1-3)[Neu5Ac(a2-6)Gal(b1-4)GlcNAc(b1-2)Man(a1-6)]Man(b1-4)GlcNAc(b1-4)[Fuc(a1-6)]GlcNAc
# Procedure, shortened: as §1
# [4] = target: Neu5Ac(a2-6)Gal(b1-4)GlcNAc(b1-2)Man(a1-6)Man(b1-4)GlcNAc(b1-4)GlcNAc
# Procedure, shortened: as §1
# [5] = target: Neu5Ac(a2-6)Gal(b1-4)GlcNAc(b1-2)Man(a1-6)[Gal(b1-4)GlcNAc(b1-2)Man(a1-3)]Man(b1-4)GlcNAc(b1-4)GlcNAc
# Procedure, shortened: as §1
# [6] = target: Neu5Ac(a2-6)Gal(b1-4)GlcNAc(b1-2)Man(a1-6)[GlcNAc(b1-2)Man(a1-3)]Man(b1-4)GlcNAc(b1-4)GlcNAc
# Procedure, shortened: as §1
# [7] = target: Neu5Ac(a2-6)Gal(b1-4)GlcNAc(b1-2)Man(a1-6)[Man(a1-3)]Man(b1-4)GlcNAc(b1-4)GlcNAc
# Procedure, shortened: as §1
# [8] = target: Neu5Ac(a2-6)Gal(b1-4)GlcNAc(b1-2)[Neu5Ac(a2-6)Gal(b1-4)GlcNAc(b1-4)]Man(a1-3)[GlcNAc(b1-4)][Neu5Ac(a2-6)Gal(b1-4)GlcNAc(b1-2)[Neu5Ac(a2-6)Gal(b1-4)GlcNAc(b1-6)]Man(a1-6)]Man(b1-4)GlcNAc(b1-4)GlcNAc
# Procedure, shortened: as §1
# [9] = target: Neu5Ac(a2-6)Gal(b1-4)GlcNAc(b1-2)[Neu5Ac(a2-6)Gal(b1-4)GlcNAc(b1-4)]Man(a1-3)[GlcNAc(b1-4)][Neu5Ac(a2-6)Gal(b1-4)GlcNAc(b1-4)Man(a1-6)]Man(b1-4)GlcNAc(b1-4)GlcNAc
# Procedure, shortened: as §1
# [10] = target: Neu5Ac(a2-6)Gal(b1-4)GlcNAc(b1-2)[Neu5Ac(a2-6)Gal(b1-4)GlcNAc(b1-6)]Man(a1-6)[Neu5Ac(a2-6)Gal(b1-4)GlcNAc(b1-2)Man(a1-3)][GlcNAc(b1-4)]Man(b1-4)GlcNAc(b1-4)GlcNAc
# Procedure, shortened: as §1
# [11] = target: Neu5Ac(a2-6)Gal(b1-4)GlcNAc(b1-3)Gal(b1-3)GlcNAc
# Procedure, shortened: as §1
# [12] = target: Neu5Ac(a2-6)Gal(b1-4)GlcNAc(b1-3)Gal(b1-4)GlcNAc
# Procedure, shortened: as §1
# [13] = target: Neu5Ac(a2-6)Gal(b1-4)GlcNAc(b1-3)Gal(b1-4)GlcNAc(b1-2)Man(a1-3)[Neu5Ac(a2-6)Gal(b1-4)GlcNAc(b1-3)Gal(b1-4)GlcNAc(b1-2)Man(a1-6)]GalNAc
# Procedure, shortened: as §1
# [14] = target: Neu5Ac(a2-6)Gal(b1-4)GlcNAc(b1-3)Gal(b1-4)GlcNAc(b1-3)Gal(b1-4)GlcNAc
# Procedure, shortened: as §1
# [15] = target: Neu5Ac(a2-6)Gal(b1-4)GlcNAc(b1-3)Gal(b1-4)GlcNAc(b1-3)Gal(b1-4)GlcNAc(b1-2)Man(a1-3)[Neu5Ac(a2-6)Gal(b1-4)GlcNAc(b1-3)Gal(b1-4)GlcNAc(b1-3)Gal(b1-4)GlcNAc(b1-2)Man(a1-6)]GalNAc
# Procedure, shortened: as §1
# [16] = target: Neu5Ac(a2-6)Gal(b1-4)GlcNAc(b1-3)Gal(b1-4)GlcNAc(b1-3)GalNAc
# Procedure, shortened: as §1
# [17] = target: Neu5Ac(a2-6)Gal(b1-4)GlcNAc(b1-3)Gal(b1-4)GlcNAc(b1-3)[Neu5Ac(a2-6)Gal(b1-4)GlcNAc(b1-3)Gal(b1-4)GlcNAc(b1-6)]GalNAc
# Procedure, shortened: as §1
# [18] = target: Neu5Ac(a2-6)Gal(b1-4)GlcNAc(b1-3)Gal(b1-4)GlcNAc(b1-6)[Gal(b1-3)]GalNAc
# Procedure, shortened: as §1
# [19] = target: Neu5Ac(a2-6)Gal(b1-4)GlcNAc(b1-3)Gal(b1-4)[Fuc(a1-3)]GlcNAc(b1-3)Gal(b1-4)[Fuc(a1-3)]GlcNAc
# Procedure, shortened: as §1
# [20] = target: Neu5Ac(a2-6)Gal(b1-4)GlcNAc(b1-3)GalNAc
# Procedure, shortened: as §1
# [21] = target: Neu5Ac(a2-6)Gal(b1-4)GlcNAc(b1-3)[Neu5Ac(a2-6)Gal(b1-4)GlcNAc(b1-6)]GalNAc
# Procedure, shortened: as §1
# [22] = target: Neu5Ac(a2-6)Gal(b1-4)GlcNAc(b1-6)GalNAc
# Procedure, shortened: as §1
# [23] = target: Neu5Ac(a2-6)Gal(b1-4)GlcNAc(b1-6)[Gal(b1-3)GlcNAc(b1-3)]Gal(b1-4)Glc
# Procedure, shortened: as §1
# [24] = target: Neu5Ac(a2-6)Gal(b1-4)GlcNAc(b1-6)[Gal(b1-3)]GalNAc
# Procedure, shortened: as §1
# [25] = target: Neu5Ac(a2-6)Gal(b1-4)GlcNAc6S
# Procedure, shortened: as §1
# Neu5Ac(a2-6)GalNAc = target: Neu5Ac(a2-6)GalNAc
# Procedure, shortened: as §1
# [26] = target: Neu5Ac(a2-6)GalNAc(b1-4)GlcNAc
# Procedure, shortened: as §1
# [27] = target: Neu5Ac(a2-6)GalNAc(b1-4)GlcNAc6S
# Procedure, shortened: as §1
# [28] = target: Neu5Ac(a2-6)GlcNAc(b1-4)GlcNAc
# Procedure, shortened: as §1
# [29] = target: Neu5Ac(a2-6)GlcNAc(b1-4)GlcNAc(b1-4)GlcNAc
# Procedure, shortened: as §1
binder,measurement,setting,value
B1,glycan array binding signal (z-score),[1],-0.171
same,glycan array binding signal (z-score),[2],-0.171
same,glycan array binding signal (z-score),[3],-0.194
same,glycan array binding signal (z-score),[4],-0.174
same,glycan array binding signal (z-score),[5],-0.195
same,glycan array binding signal (z-score),[6],0.01
same,glycan array binding signal (z-score),[7],-0.172
same,glycan array binding signal (z-score),[8],-0.026
same,glycan array binding signal (z-score),[9],-0.145
same,glycan array binding signal (z-score),[10],-0.183
same,glycan array binding signal (z-score),[11],-0.084
same,glycan array binding signal (z-score),[12],-0.149
same,glycan array binding signal (z-score),[13],-0.177
same,glycan array binding signal (z-score),[14],-0.161
same,glycan array binding signal (z-score),[15],-0.014
same,glycan array binding signal (z-score),[16],-0.157
same,glycan array binding signal (z-score),[17],-0.192
same,glycan array binding signal (z-score),[18],-0.16
same,glycan array binding signal (z-score),[19],0.126
same,glycan array binding signal (z-score),[20],-0.217
same,glycan array binding signal (z-score),[21],-0.107
same,glycan array binding signal (z-score),[22],-0.085
same,glycan array binding signal (z-score),[23],-0.205
same,glycan array binding signal (z-score),[24],-0.179
same,glycan array binding signal (z-score),[25],-0.115
same,glycan array binding signal (z-score),Neu5Ac(a2-6)GalNAc,-0.139
same,glycan array binding signal (z-score),[26],-0.072
same,glycan array binding signal (z-score),[27],-0.125
same,glycan array binding signal (z-score),[28],-0.184
same,glycan array binding signal (z-score),[29],-0.089
